The values below come from PubChem BioAssay (EPA / NIEHS).

Each structure is given as a SMILES string. Inconclusive results are not listed. How the source made its calls: active means hit-call score of the fitted dose curve at least 0.9, where 1 is the maximum; inconclusive means response in the unintended direction; inactive means score below 0.9. Certain results were filed several times, with different values. This list holds those alone. There may be further records. Values that stand side by side are repeats across runs, samples, wells, individuals or studies.

The assay has as its target human Protein Tyrosine Phosphatase Receptor Type C (PTPRC), PTPRC (gene 5788) (UniProt P08575). Kind of assay: NVS_ENZ_hPTPRC: NovaScreen (NVS) Enzymatic Assay for human Protein Tyrosine Phosphatase Receptor Type C (PTPRC) (AID 2283212). In short, it runs like this:
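Yeast-extracted human PTPRC used in a cell-free colorimetric enzyme activity read-out, 1 h after dosing. Primary screen in duplicate at 25 uM; actives rerun in concentration-response up to 50 uM, DMSO as baseline.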

As a reminder, the AC50 is the concentration at which the activity in the assay is half-maximal.

UniProt P08575, sequence (P08575 whole entry, looked up): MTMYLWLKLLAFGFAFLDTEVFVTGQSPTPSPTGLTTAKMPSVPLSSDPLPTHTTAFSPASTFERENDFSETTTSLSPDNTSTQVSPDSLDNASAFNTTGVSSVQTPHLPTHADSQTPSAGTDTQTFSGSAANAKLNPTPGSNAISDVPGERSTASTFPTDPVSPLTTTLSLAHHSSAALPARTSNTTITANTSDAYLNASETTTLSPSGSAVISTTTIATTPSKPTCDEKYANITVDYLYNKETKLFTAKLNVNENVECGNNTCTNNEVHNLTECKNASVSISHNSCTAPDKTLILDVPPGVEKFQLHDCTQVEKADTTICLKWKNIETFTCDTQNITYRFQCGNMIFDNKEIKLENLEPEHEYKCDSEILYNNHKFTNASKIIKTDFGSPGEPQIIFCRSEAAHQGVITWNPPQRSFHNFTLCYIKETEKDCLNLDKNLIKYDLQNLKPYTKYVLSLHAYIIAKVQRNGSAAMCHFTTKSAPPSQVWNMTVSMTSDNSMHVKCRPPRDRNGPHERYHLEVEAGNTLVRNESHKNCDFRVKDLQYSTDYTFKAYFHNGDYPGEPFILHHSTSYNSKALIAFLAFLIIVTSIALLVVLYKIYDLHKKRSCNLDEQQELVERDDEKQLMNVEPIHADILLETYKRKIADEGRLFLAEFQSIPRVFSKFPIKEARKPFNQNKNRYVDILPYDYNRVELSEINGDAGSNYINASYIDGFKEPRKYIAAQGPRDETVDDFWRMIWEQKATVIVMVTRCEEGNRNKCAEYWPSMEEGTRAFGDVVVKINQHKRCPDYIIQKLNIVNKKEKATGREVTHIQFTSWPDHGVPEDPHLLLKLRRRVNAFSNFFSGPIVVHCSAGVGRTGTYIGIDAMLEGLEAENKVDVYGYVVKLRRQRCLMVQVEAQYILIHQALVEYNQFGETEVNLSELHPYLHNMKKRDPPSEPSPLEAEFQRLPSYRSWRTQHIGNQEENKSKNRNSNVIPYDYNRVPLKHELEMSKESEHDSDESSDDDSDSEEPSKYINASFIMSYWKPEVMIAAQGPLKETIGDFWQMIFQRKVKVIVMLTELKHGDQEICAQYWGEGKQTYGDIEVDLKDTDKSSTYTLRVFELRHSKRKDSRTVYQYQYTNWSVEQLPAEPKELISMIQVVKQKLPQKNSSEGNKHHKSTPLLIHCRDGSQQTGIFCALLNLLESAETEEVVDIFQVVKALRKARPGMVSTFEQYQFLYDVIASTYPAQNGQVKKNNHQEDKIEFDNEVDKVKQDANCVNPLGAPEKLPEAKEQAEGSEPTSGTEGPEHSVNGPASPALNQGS

With `S=C(S)NCCNC(=S)S.[Mn+2].[S-]C([S-])=NCCN=C([S-])[S-].[Zn+2]`, the AC50 entry was “active: 905 nM, 1.29 µM, 17.1 µM, 263 nM, 293 nM, 1.82 µM [separate samples]”.
